Reference: PubChem BioAssay AID686979 (National Center for Advancing Translational Sciences (NCATS), 2013)
Screen size: about 420,000 compounds; about 50,000 (12%) were called active. The shares of active, inactive and inconclusive entries below differ from those in the screen. Calls follow the shape of the dose curve; as a rule, active = well fitted inhibition curve with a large enough effect; inconclusive = small, poorly fitted or top-dose-only effect; inactive = flat fitted curve, though single readings scatter. Potencies of inconclusive entries are left out as doubtful fits.

experiment: qHTS for Inhibitors of human tyrosyl-DNA phosphodiesterase 1 (TDP1): qHTS in cells in presence of CPT; conditions: chicken DT40 Tdp1-/-;hTDP1 cells + 20 nM CPT, ATP luminescence, 48 h; activity change, negative = growth inhibition: at 46.2 µM (top of the series) unless noted; also: nearly all actives have a fitted effect of over 55% in size
In short: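 Chicken DT40 Tdp1-/- cells complemented with human TDP1, 400 cells/well, exposed to compounds plus 20 nM camptothecin for at least 48 h at 37 C; viability read as ATP content by CellTiter-Glo luminescence.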
% is scaled to controls: 0 for no effect and ±100 for the full control effect; potency is read from the fitted curve at half-maximal effect; tags tell the direction and shape of the fitted curve.

Row | SMILES | Potency | activity change, negative = growth inhibition
1 | O=C(Cc1ccccc1)Nc1sc2c(c1C(=O)Nc1ccc(Br)cc1)CCCC2 | active: 11.6 µM | –
2 | Cc1ccc(C=NNc2nc3c([nH]2)c(=O)n(C)c(=O)n3C)cc1 | – | inconclusive: -33.1% [inhibitor]
3 | Cc1ccc(S(=O)(=O)N2CCOCC2)cc1C(=O)N1CCCCCC1 | – | inactive: -9.22%
4 | CC(C)CSc1nc2ccccc2[nH]1 | – | inactive: -13.4%
5 | Cc1c(C=O)c2ccccn2c1C(=O)c1cccc([N+](=O)[O-])c1 | inconclusive [inhibitor, single point] | –
6 | COc1ccc(CCNC(=O)Cc2ccc([N+](=O)[O-])cc2)cc1OC | – | inactive: 5.03%
7 | CCCc1nc2ccccc2c(C(=O)OC(C)C(=O)NCc2ccc3c(c2)OCO3)c1CC (stereo unspecified) | active: 29.1 µM | –
8 | O=C(CN(C(=O)CNC(=O)c1ccco1)c1ccc(F)c(Cl)c1)NC1CCCCC1 | – | inactive: -17.3%
9 | Cc1ccc(NC(=O)/C=C2\NC(=O)CS2)cc1 | – | inactive: 19.5%
10 | CCn1c([N+](=O)[O-])nc2c1c(=O)[nH]c(=O)n2C | active: 2.31 µM | –
11 | CC(C)(C)c1cc(-c2nc(N)nc(N)n2)c(O)c(C(C)(C)C)c1 | inconclusive [inhibitor, single point] | –
12 | CC(=O)c1ccc(NS(=O)(=O)c2ccc(-n3cccn3)cc2)cc1 | inconclusive [inhibitor, partial curve] | –
13 | N#CC1=C(N)NC(SCc2ccccc2)=C(C#N)C12CCCC2 | inconclusive [inhibitor, single point] | –
14 | Cc1ccc(S(=O)(=O)Nc2cc(C(=O)NCCN(C)C)ccc2N2CCCCC2)cc1 | inconclusive [inhibitor, single point] | –
15 | COc1ccc(N2CCN(C(c3nnnn3C3CCCC3)C(C)C)CC2)cc1 (stereo unspecified) | active: 20.6 µM | –
16 | CCOCCC(=O)Nc1ccc2c(c1)c(=O)n(C)n2Cc1cccc(C(F)(F)F)c1 | – | inactive: -18.4%
17 | CC1CC1C(=O)Nc1nc2ccc(Cl)cc2s1 (stereo unspecified) | inconclusive [inhibitor, single point] | –
18 | CCOC(=O)C1(CCOc2ccccc2)CCN(Cc2ccccc2O)CC1 | inconclusive [inhibitor, partial curve] | –
19 | Cc1ccc(C(=O)NC2(C(F)(F)F)N=C(c3ccccc3)N(Cc3ccccc3)C2=O)cc1 (stereo unspecified) | inconclusive [inhibitor, single point] | –
20 | CCC(=O)c1cn(/C(=C\C(=O)OC(C)(C)C)CCC(OC)OC)cc1CC | inconclusive [inhibitor, single point] | –
21 | CCn1c2ccccc2c2nnc(SCC(=O)NC(CC(C)C)C(=O)OC)nc21 (stereo unspecified) | inconclusive [inhibitor, single point] | –
22 | Cc1ccccc1NC(=O)CSc1nc(-c2ccco2)nc2cc(=O)[nH]n12 | – | inactive: 8.33%
23 | O=C(c1ccc2c(c1)N(Cc1ccc(Cl)cc1)C(=O)c1ccccc1S2=O)N1CCCCC1 (stereo unspecified) | inconclusive [inhibitor, single point] | –
24 | CNC[C@H]1OCCCC[C@H](C)Oc2ccc(NC(=O)CCCN(C)C)cc2C(=O)N([C@H](C)CO)C[C@@H]1C | – | inactive: -21.7%

Row | SMILES | Potency | activity change, negative = growth inhibition
25 | COc1ccc(C(=O)Oc2c(Sc3ccc(C)cc3)c(C)nn2C(C)(C)C)cc1OC | inconclusive [inhibitor, partial curve] | –
26 | Cc1ccc2c(CNCc3ccc(C)o3)c(C(=O)O)n(Cc3ccc(F)cc3)c2c1 | inconclusive [inhibitor, single point] | –
27 | Cc1ccc(NC(=O)Cn2cc(C(=O)C3CCCCC3)c3ccccc32)cc1 | inconclusive [inhibitor, single point] | –
28 | CCOc1ccc(-c2cc(CCCC(=O)NCCc3cc(OC)c(OC)c(OC)c3)no2)cc1 | inconclusive [inhibitor, single point] | –
29 | CCOC(=O)C1CCN(C(c2ccc(C)cc2)c2c(O)cc(C)n(CCOC)c2=O)CC1 (stereo unspecified) | – | inactive: 2.65%
30 | O=C(CCc1ccccc1)NCc1cccnc1 | – | inactive: 3.47%
31 | CCOc1ccc(NC(=O)c2ccc(Cn3nc(C)cc3C)o2)cc1 | inconclusive [inhibitor, single point] | –
32 | COc1ccc(NC(=O)N(C)C[C@H]2Oc3c(NS(=O)(=O)c4ccc(F)cc4)cccc3C(=O)N([C@H](C)CO)C[C@@H]2C)cc1 | – | inactive: 4.6%
33 | Cc1ccc(C)c(CN2C(=O)CSc3ccc(C(=O)N4CCCC4)cc32)c1 | inconclusive [inhibitor, partial curve, poor fit] | –
34 | Cc1cccc(NC(=O)CCNS(=O)(=O)c2ccc3c(c2)CCN3C(=O)C2CC2)c1 | active: 18.4 µM | –
35 | CCOc1cc(OCC)cc(C(=O)N2CCC[C@H]2C(=O)N2CCC[C@H]2C(=O)NCc2ccncc2)c1 | – | inactive: -8.83%
36 | CCOC(=O)Cn1nnc(-c2ccc(SC)cc2)n1 | – | inactive: 7.1%
37 | O=C(Nc1ccc(Nc2ccccc2)cc1)C(Cl)Cl | active: 1.16 µM | –
38 | Cc1c(CC(Cl)(Cl)Cl)c2c(n1O)CC(C)(C)CC2=O | inconclusive [inhibitor, single point] | –
39 | Cc1nc2cccc(C(=O)Oc3ccc([N+](=O)[O-])cc3)c2o1 | – | inactive: -18%
40 | CCNc1c(NS(=O)(=O)c2ccc(OC)cc2)c(=O)oc2ccccc12 | inconclusive [inhibitor, single point] | –
41 | CC(=O)/C=C/c1ccc2ccccc2n1 | active: 5.17 µM | –
42 | CC1(C(=O)NS(=O)(=O)c2ccc(Cl)cc2)CCN1C(=O)COc1ccc(Cl)cc1 (stereo unspecified) | – | inactive: 2.41%
43 | CCCNC(=O)NC(=O)COC(=O)CNS(=O)(=O)/C=C/c1ccccc1 | – | inactive: -21%
44 | COc1ccc(OC)c(S(=O)(=O)N/N=C\c2cn(CC(N)=O)c3ccccc23)c1 | active: 13 µM | –
45 | CCOc1ccc(NC(=O)Cn2c(=O)n(CCCS(=O)(=O)C3CCCCC3)c(=O)c3ccccc32)cc1 | inconclusive [inhibitor, partial curve] | –
46 | CCc1ccccc1NC(=O)CCC(=O)OCC(=O)c1ccc(-c2ccccc2)cc1 | inconclusive [inhibitor, partial curve] | –
47 | COc1ccc(CCNC(=O)CCCn2nc(C)c3sc4ccccc4c3c2=O)c(OC)c1 | active: 23.1 µM | –
48 | Oc1ccccc1C1=Nc2ncnn2C(c2ccccc2)C1 (stereo unspecified) | inconclusive [inhibitor, single point] | –

Row | SMILES | Potency | activity change, negative = growth inhibition
49 | Cc1ccc(NC(=O)C2CCC(CNS(=O)(=O)c3cccc4nsnc34)CC2)c(Cl)c1 (stereo unspecified) | – | inactive: -25.7%
50 | CCOC(=O)c1c(NC(=O)CSc2nnc(CNc3ccc(F)cc3)o2)sc(C)c1C | – | inactive: -8.13%
51 | N#Cc1c(F)cccc1N1CCN(Cc2ccc3c(c2)OCO3)CC1 | active: 16.4 µM | –
52 | N#Cc1ccc(CN2CCCC3(CCN(S(=O)(=O)c4ccccc4)CC3)C2)cc1 | inconclusive [inhibitor, single point] | –
53 | Cc1ccc2c(c1)c1c(n2CC(O)Cn2nc(C)c(Br)c2C)C(=O)CCC1 (stereo unspecified) | active: 20.6 µM | –
54 | Cc1ccc(C(=O)N(CC(=O)NC2CCCC2)Cc2cccs2)s1 | inconclusive [inhibitor, single point] | –
55 | Cc1ccc(NC(=O)C(=O)NCc2ccc(/C=C(/C#N)C(=O)NCc3cccnc3)o2)cc1C | inconclusive [inhibitor, single point] | –
56 | COc1ccc(NC(=O)COC(=O)c2c3c(nc4ccccc24)CCCC3)cc1 | inconclusive [inhibitor, partial curve, poor fit] | –
57 | COc1ccccc1CN(C)C(=O)c1cccc(S(=O)(=O)N2CCc3ccccc3C2)c1 | inconclusive [inhibitor, single point] | –
58 | CC1=CC(=O)C=C(C)C1=NOc1ccccc1[N+](=O)[O-] | active: 1.3 µM | –
59 | C=CCNC(=O)c1ccccc1NC(=O)c1ccc(Cl)c(S(=O)(=O)Nc2cccc(C)c2C)c1 | inconclusive [inhibitor, single point] | –
60 | Cc1[nH]nc(SCC(=O)NC2CCCCC2)c1[N+](=O)[O-] | – | inactive: -1.94%
61 | Cc1ccc(-n2ncc3c(N4CCC(Cc5ccccc5)CC4)ncnc32)cc1C | inconclusive [inhibitor, single point] | –
62 | Cn1c(CCCCCN)nc2ccccc21 | inconclusive [inhibitor, single point] | –
63 | Cc1cccc(N(C)C(=O)Cc2c(C(=O)O)[nH]c3ccccc23)c1 | inconclusive [inhibitor, single point] | –
64 | CC1=C(C(=O)N(C)C)CC(CC(=O)NCC2CCCCC2)C(=O)N1Cc1ccc(C(C)(C)C)cc1 (stereo unspecified) | inconclusive [inhibitor, single point] | –
65 | COc1ccc(N2CCN(C(=O)C3CCN(S(=O)(=O)c4cn(C)cn4)CC3)CC2)cc1 | – | inactive: -4.93%
66 | CC(=O)c1ccc(NC(=S)NCc2ccc(Cl)cc2Cl)cc1 | inconclusive [inhibitor, single point] | –
67 | CC(=O)c1cccc(NC(=O)CSc2nnc(C(C)N(C)C)n2Cc2ccccc2)c1 (stereo unspecified) | inconclusive [inhibitor, partial curve, poor fit] | –
68 | CCCn1cc(S(=O)(=O)c2ccc(Cl)cc2)c(=O)c2cc(OC)ccc21 | active: 16.4 µM | –
69 | Cc1ccc(N(Cc2ccco2)C(=O)c2cccc(S(=O)(=O)N(C)C)c2)cc1 | inconclusive [inhibitor, single point] | –
70 | O=S(=O)(/N=S1/CC=CCN1S(=O)(=O)c1ccccc1)c1ccccc1 (stereo unspecified) | inconclusive [inhibitor, single point] | –
71 | CNC(=O)c1[nH]cnc1C(=O)Nc1ccc(Cl)cc1 | – | inactive: -29.1%
